# Hit rate of the full screen: of about 110,000 compounds, about 230 (0.21%) showed an effect of 50% or more. This is one part of the list.
# Target: DPAP1 (Plasmodium falciparum, UniProt Q8IIJ9)
# Assay: primary screen, percent inhibition; read by cleavage of a fluorogenic dipeptide substrate; higher = more effect of the substance
# Parameters: species or system P. falciparum D10 trophozoite lysates; single well
# 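Note: 30 min substrate incubation versus DMSO and 10 µM JCP410 controls.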
# Chain of DPAP1 (Q8IIJ9 whole entry, looked up): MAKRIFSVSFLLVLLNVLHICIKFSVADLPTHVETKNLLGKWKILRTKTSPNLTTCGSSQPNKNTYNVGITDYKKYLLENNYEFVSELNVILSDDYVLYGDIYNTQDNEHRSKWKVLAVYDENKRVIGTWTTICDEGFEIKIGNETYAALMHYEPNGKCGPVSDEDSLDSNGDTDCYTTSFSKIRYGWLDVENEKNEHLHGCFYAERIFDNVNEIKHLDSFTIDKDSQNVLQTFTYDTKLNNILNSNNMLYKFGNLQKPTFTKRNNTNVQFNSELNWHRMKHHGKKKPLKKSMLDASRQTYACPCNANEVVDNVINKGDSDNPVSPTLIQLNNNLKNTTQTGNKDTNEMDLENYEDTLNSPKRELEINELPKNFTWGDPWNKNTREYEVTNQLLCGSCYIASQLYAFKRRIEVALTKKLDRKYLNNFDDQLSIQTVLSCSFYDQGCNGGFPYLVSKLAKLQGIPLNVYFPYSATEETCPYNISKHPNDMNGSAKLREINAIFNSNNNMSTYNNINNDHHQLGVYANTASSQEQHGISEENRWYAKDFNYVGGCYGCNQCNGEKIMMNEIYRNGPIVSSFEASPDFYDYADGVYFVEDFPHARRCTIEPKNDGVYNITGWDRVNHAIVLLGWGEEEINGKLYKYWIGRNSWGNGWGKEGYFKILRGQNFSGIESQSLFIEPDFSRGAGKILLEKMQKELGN
row,SMILES,% Inhibition @ 10 uM
1,O=C(CN1CCN(Cc2ccc3c(c2)OCO3)CC1)NCc1cccs1,6.31%
2,CCCCCn1c(CN2CCN(C(=O)OCC)CC2)nc2c1c(=O)n(C)c(=O)n2C,2%
3,Cc1sc2[nH]c(=S)n(-c3ccccc3)c(=O)c2c1C,72.2%
4,O=C(NCC1CCCO1)c1ccccc1F (stereo not drawn),4.54%
5,Cc1cccc(NC(=O)c2ccc3c(c2)C(=O)N(c2ccccn2)C3=O)c1C,-2.29%
6,O=C(Nc1cc(Cl)ccc1Cl)c1ccc2ccccc2c1,2.65%
7,CCOc1ccccc1C1C(C(=O)c2ccc(OC)cc2C)=C(O)C(=O)N1Cc1cccnc1 (stereo not drawn),-1.52%
8,CCC(C)(C)C1CCc2c(sc(NC(=O)CCCC(=O)O)c2C(N)=O)C1 (stereo not drawn),2.38%
9,COC(=O)C1=CN(CC2CCCO2)C=C(C(=O)OC)C1c1ccsc1 (stereo not drawn),-3.41%
10,O=C(c1cccs1)N1CCN(CCN2C(=O)c3cccc4cccc(c34)C2=O)CC1,5.09%
11,CC(=O)Nc1ccc(NC(=O)COc2ccc3ccccc3c2Br)cc1,1.03%
12,Cc1ccc(OCC(=O)Nc2nnc(S(=O)(=O)N(C)Cc3ccco3)s2)cc1C,2.25%
13,CCCC/N=C(\N)C(C)c1ccc(CC(C)C)cc1 (stereo not drawn),2.24%
14,N=c1c(C(=O)NCCN2CCOCC2)cc2c(=O)n3ccccc3nc2n1Cc1cccnc1,-3.27%
15,CCCCNC(=O)c1c(C)[nH]c(C(=O)OCC)c1C,1.72%
16,COc1ccc(CN2C(=O)NC(=O)/C(=C\c3ccco3)C2=O)cc1,3.95%
17,COc1ccccc1C(=O)Nc1cc(-c2nc3cc(Cl)ccc3o2)ccc1C,1.08%
18,CCS(=O)(=O)N1CCC(C(=O)NCC2CCCO2)CC1 (stereo not drawn),0.302%
19,Cc1ccc(-n2nc3c(=O)n(CCCC(=O)NCc4ccc(Cl)cc4)nc(C)c3c2C)cc1,-5.35%
20,Cc1ccc2nc(NC3CCCCCC3)c3nncn3c2c1,-4.21%
21,c1ccc(-c2noc(CSc3nnnn3C3CCCCC3)n2)cc1,2.95%
22,COc1ccc(-c2cc(CCCC(=O)NCCc3cccs3)no2)cc1,-3.1%
23,CCc1ccc2nc(N3CCC(C(=O)NCCN4CCCCC4C)CC3)sc2c1 (stereo not drawn),-6.4%
24,Cc1ccsc1CCNS(=O)(=O)c1cc(Br)cnc1N,-2.84%
25,CCN(CC)C(=O)C1CC(c2ccccc2F)=NO1 (stereo not drawn),-5.79%
26,O=C(NC(c1ccccc1)c1ccccc1)c1ccccn1,-5.16%

row,SMILES,% Inhibition @ 10 uM
1,COc1ccccc1CCNC(=O)CCCn1ccc2cc(S(=O)(=O)N3CCCC3)ccc21,1.11%
2,CC(C)n1c2ccc(F)cc2c2nc3ccccc3nc21,-4.62%
3,CCN1CCCC1CNC(=O)c1cccc2c1SCCC2=O (stereo not drawn),0.0845%
4,CCOC(=O)N1CCN(CC(O)COc2ccc(CC)cc2)CC1 (stereo not drawn),7.39%
5,Cn1c(=O)c2c(ncn2CC(=O)NC(C)(C)C)n(C)c1=O,0.611%
6,O=C(COc1ccccc1)NCc1ccncc1,-1.95%
7,Cc1coc2cc3oc(=O)c(CCC(=O)NCCc4ccccc4F)c(C)c3cc12,2.54%
8,COc1cccc(CC(NC(=O)OCc2ccccc2)C(=O)NCC#N)c1 (stereo not drawn),-4.72%
9,Cc1ccc(N(CC(=O)Nc2ccc(Cl)cc2)S(C)(=O)=O)c(C)c1,0.793%
10,CCOP(=O)(CN1CCOCC1)OCC,-3.65%
11,CCOC(=O)C1=C(CN2CCc3ccccc3C2)NC(=O)NC1c1cccc(OC)c1OC (stereo not drawn),2.12%
12,C=CCN1C(=O)S/C(=C\c2ccc(OC(C)C(=O)O)c(OC)c2)C1=O (stereo not drawn),-0.105%
13,COc1ccc(C(=O)Nc2ccccn2)cc1,-1.63%
14,Cc1ccc(S(=O)(=O)Nc2cc3c4c(oc3c3ccccc23)CCCC4=O)cc1,1.64%
15,COCCNC(=O)c1ccc(-c2nn(C)c(=O)c3ccccc23)cc1,-1.43%
16,CCSc1nc(O)c2c(n1)N=C1CCCC(O)=C1C2c1ccccc1OC (stereo not drawn),2.06%
17,Cc1nc(NC(=O)CCn2cnnn2)sc1C,5.02%
18,Cc1nn(CC(=O)NCc2ccccc2F)c(=O)c2nn(-c3ccccc3)c(C)c12,-1.21%
19,CC1CC(C)CN(C(=O)Cn2ncc3c4ccccc4n(C)c3c2=O)C1 (stereo not drawn),1.41%
20,COC(=O)c1ccc(/C=N/n2cnnc2)cc1,-3.98%
21,CCN(CC)c1ccc(C=C(C#N)C#N)c(OC(C)=O)c1,-2.03%
22,O=C(NCc1ccccc1)c1ccc2nc(O)c(-c3ccccc3)c(O)c2c1,5.49%
23,COCCn1c(CN2CCCCC2)nc2c1c(=O)n(C)c(=O)n2C,0.317%
24,O=C(O)CCCc1c(-[n+]2ccccc2)[nH]c2ccccc12,3.04%
25,CN1CCc2c(sc3nc(S)nc(N)c23)C1,23.8%
26,O=C(Nc1ccc(Cl)c(Cl)c1)c1cnccn1,-1.56%

row,SMILES,% Inhibition @ 10 uM
1,CCN(C(=O)c1cc2ccccc2oc1=O)c1ccccc1,1.7%
2,COc1ccc(CNCC2CCCO2)cc1 (stereo not drawn),4.22%
3,O=C(CSCC(=O)Nc1cccc(C(F)(F)F)c1)Nc1ccc(F)cc1,0.161%
4,CC1(C)Cc2c(c(-c3ccco3)nc3sc4c(N5CCCCC5)ncnc4c23)CO1,-1.33%
5,Clc1cccc(OCCCCN2CCCC2)c1,-12%
6,Cc1cc(OCC(=O)Nc2ccc(CC#N)cc2)cc(C)c1Cl,-1.52%
7,CC1=C(C(=O)OCCc2ccccc2)C(c2ccc3c(c2)OCO3)C2=C(O)CC(C)(C)CC2=N1 (stereo not drawn),5.94%
8,O=C1C2C3C=CC(C4C=CC43)C2C(=O)N1c1ccccc1 (stereo not drawn),3.93%
9,CC12CC3CC(C)(C1)CC(OCCNC(=O)c1nc(-c4cccnc4)no1)(C3)C2,4.74%
10,CC1CCN(S(=O)(=O)c2ccc(NC(=O)c3ccc(Cl)c(Cl)c3)cc2)CC1,-6.75%
11,Cc1cccc(NC(=O)c2sc3nc(N)c(C#N)cc3c2N)c1,25.1%
12,O=C(Nc1ccc([N+](=O)[O-])cc1)c1cccc(S(=O)(=O)NCc2ccccc2)c1,-3.52%
13,Nc1nnnn1/N=C/c1ccccc1C(F)(F)F,6.5%
14,COC(=O)c1cc(Cl)c(C(=O)OC)cc1Cl,7.5%
15,COc1ccc2c(C)c(CCC(=O)NCc3ccc4c(c3)OCO4)c(=O)oc2c1,2.54%
16,COc1ccc2c(c1)C1=NN(/C(C)=C/C(C)=O)C(c3ccc([N+](=O)[O-])cc3)C1CC2 (stereo not drawn),4.12%
17,c1ccc(Oc2nc(-c3ccncc3)nc3ccccc23)cc1,-4.39%
18,COc1ccc(CCNC(=O)C2CCN(S(=O)(=O)c3cccc4nsnc34)CC2)cc1OC,-7.16%
19,Cc1cccc(NC(=O)CN2C(=O)S/C(=C/c3cccs3)C2=O)c1,2.13%
20,O=C(CCCCCN1C(=O)c2ccccc2C1=O)Nc1cccc(C(F)(F)F)c1,-0.424%
21,NC(=O)Cn1nnc(-c2ccc(OCc3cc4c(cc3Br)OCO4)cc2)n1,3.68%
22,Cn1c2c(c(=O)n(C)c1=O)C(c1cccc(F)c1)C1C(=O)c3ccccc3C1=N2 (stereo not drawn),6.1%
23,COc1ccc(C(=O)Nc2nc3n(n2)C(c2ccccc2)C=C(c2ccccc2)N3)cc1 (stereo not drawn),-3.96%
24,COc1ccccc1C1C=C(c2cccnc2)Nc2nnnn21 (stereo not drawn),-1.46%
25,CC(C)NCC(O)COc1cc2c(cn1)CCCC2 (stereo not drawn),-0.424%
26,CCCCSc1nn2c(=O)c(C)nnc2s1,-7.96%

row,SMILES,% Inhibition @ 10 uM
1,O=C1C2C(c3ccccc3)OC3(C(=O)c4ccccc4C3=O)C2C(=O)N1c1cccc(Cl)c1 (stereo not drawn),5.26%
2,CC1CC(C)CN(C(=O)c2cc3c(O)nc4ccccc4c3n2C)C1 (stereo not drawn),-5.1%
3,O=C(O)c1ccc(S(=O)(=O)c2ccccc2)cc1,-1.77%
4,COc1ccc(-c2nnc3sc(NC(=O)C(C)Oc4ccccc4)nn23)cc1OC (stereo not drawn),2.81%
5,Cc1c(C(=O)NCCCN2CCOCC2)oc2ccc3c(c12)C=CC1(CCCC1)O3,13.3%
6,O=C(CSc1ccc(-c2cccs2)nn1)NCc1ccc(F)cc1,-0.822%
7,O=C(Nc1sc2c(c1C(=O)O)CCCC2)c1ccc(-c2ccccc2)cc1,-2.13%
8,Cn1nc(-c2ccc(Cl)cc2)c2cc(C(=O)N3CCOCC3)sc21,-6.89%
9,CCOc1ccc(CCNC(=O)C2=CCN(S(=O)(=O)c3ccc(F)cc3)CC2)cc1OCC,-5.19%
10,O=C(NCc1ccc2c(c1)OCO2)C(Cc1ccccc1)NS(=O)(=O)c1cccc2nsnc12 (stereo not drawn),2%
11,COc1ccc(Cl)cc1C(=O)Nc1ccccc1F,1.5%
12,COc1ccccc1NC(=O)c1cc(Cl)ccc1OC,1.03%
13,CN(C)CCCNc1nc(-c2ccccc2O)nc2ccccc12,4.08%
14,CCN1CCN(C(=O)Nc2cn(CC(C)C)c(=O)c3ccccc23)CC1,-3.26%
15,O=C(NC(c1ccccc1)c1ccccc1)C(=O)c1c[nH]c2ccccc12,1.03%
16,O=C(Nc1ccc(F)cc1)N1CCN(C(=O)c2ccco2)CC1,2.66%
17,Cc1cc2c(s1)CCCCc1nnnn1-2,-8.28%
18,CC(Nc1ncnc2c1cnn2C)c1ccccc1 (stereo not drawn),1.58%
19,CC12CCCC(=O)C1C(c1ccccc1)NC2c1ccccc1 (stereo not drawn),-4.75%
20,COc1ccc(CC(C)N[C@H]2CC[C@H](O)CC2)cc1OC (stereo partly drawn),3.19%
21,CCCCNC(=O)CSc1nc2nnc(C)c-2c(N)n1-c1cccc(OC)c1,1.2%
22,Clc1cccc(Nc2nc3nonc3nc2N2CCOCC2)c1,5.66%
23,Cc1ccc(C)c(-c2c(C#N)c(N)nc3c2CCCCC3)c1,-2.21%
24,O=C(Nc1ccc(Cl)cc1)N1CCN(c2ccccc2F)CC1,2.22%
